# Measured values: PubChem BioAssay AID938 (National Center for Advancing Translational Sciences (NCATS), 2007)
# About 1,800 (2.5%) of roughly 73,000 compounds were called active. The inconclusive results got no clear call from the source; some entries with a clear call stand among them for comparison. Calls come from the whole dose curve; as a rule, active = well fitted activation curve with a large enough effect; inconclusive = small, poorly fitted or top-dose-only effect; inactive = no such curve, though single readings can be large or run the other way. No potency is given beside an inconclusive call; the fits are too rough.
# Assay: qHTS Assay for Agonists of the Thyroid Stimulating Hormone Receptor: Activators of Intracellular cAMP Concentrations in Parental HEK 293; note: nearly all actives have a fitted effect of over 55% in size; for activation: % of control where 0% means no effect
# Settings: parental HEK293 CNG cAMP sensor, membrane potential fluorescence; activation: at 57.1 µM (top of the series) unless noted
# Outline: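 Counterscreen for endogenous-receptor signalling: CNG-channel HEK 293 cells report cAMP rise by membrane depolarization. After 60 min dye equilibration with 100 uM RO 20-1724, compounds incubated 30 min before bottom-read fluorescence at 590 nm.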
# Potency is the fitted concentration of half-maximal effect; tags give direction and shape of the fitted curve.
SMILES,Potency,activation
Cn1nnc(C(O)CNCc2cccs2)n1 (configuration not stated),"inconclusive [activator, single point]",
CCOC(=O)c1sc(NC(=O)CSc2nncs2)c(C(=O)OCC)c1C,active: 25.1 µM,
CCOCCOC(=O)c1cccc(NC(=O)OCC)c1,,inactive: 1.62%
C=CCN1C(=O)C2C(C(=O)NCc3ccccc3)C3(C)C=CC2(O3)C1C(=O)NC(C)(C)C (configuration not stated),"inconclusive [activator, single point]",
CCn1c2ccccc2c2nnc(SCC(=O)OCN3C(=O)c4ccccc4C3=O)nc21,,inactive: -6.04% [at 11.4 µM]
O=C(NCc1ccc2c(c1)OCO2)c1ccc2c(c1)C(=O)N(Cc1cccnc1)C2=O,"inconclusive [activator, single point]",
c1ccc(Nc2ncncc2-c2ccc3c(c2)OCO3)cc1,"inconclusive [activator, single point]",
CCCc1cc(=O)[nH]c(SCc2cc(C(=O)OC)c(C)o2)n1,"inconclusive [activator, single point]",
CCCC(=O)Nc1cc(=O)[nH]c2ncnn12,"inconclusive [activator, single point]",
COC(=O)c1ccc(C)c(NC(=O)C2COc3ccccc3O2)c1 (configuration not stated),,inactive: 20.1%
COc1ccc(-n2nnnc2SCC(=O)c2ccc3c(c2)OCCO3)c(OC)c1,"inconclusive [activator, partial curve]",
CC(=O)c1ccc(O)c(CN(C2CCCCC2)C2CCCCC2)c1O,,inactive: -0.466% [at 11.4 µM]
Cc1ccc(C2CC(=O)NC(SCc3ccccc3)=C2C#N)o1 (configuration not stated),"inconclusive [activator, single point]",
CCSc1oc(-c2ccco2)nc1S(=O)(=O)c1ccc(F)cc1,"inconclusive [activator, single point]",
O=S1(=O)CC(NCc2ccccc2)C(Nc2ccccc2)C1 (configuration not stated),,inactive: 12.2%
C1CCC(N=C(NC23CC4CC(CC(C4)C2)C3)N2CCOCC2)CC1,active: 25.1 µM,
Cc1ccnc(SCC(=O)Nc2oc(-c3ccccc3)c(-c3ccccc3)c2C#N)n1,"inconclusive [activator, partial curve]",
COCC(C)n1c(C)cc(C(=O)COC(=O)c2oc3ccccc3c2C)c1C (configuration not stated),"inconclusive [activator, partial curve]",
N#Cc1cc2c(=O)n3ccccc3nc2n(CCCN2CCOCC2)c1=O,,inactive: -6.55%
CCSc1nnc(NC(=O)c2cnccn2)s1,"inconclusive [activator, single point]",
COC(=O)c1cccc(S(=O)(=O)N2CCC(n3nnc4cc(F)ccc43)CC2)c1,"inconclusive [activator, partial curve]",
Cn1c(=O)c(CCc2ccccc2)nc2cnc(N3CCNCC3)nc21,,inactive: 14.4%
CCOC(=O)C1CCCN(Cc2nc(N)nc(Nc3ccc(C)cc3)n2)C1 (configuration not stated),"inconclusive [activator, partial curve]",
Cc1nn(-c2ccccc2)c2sc(C(=O)N3CCc4ccccc4C3)cc12,active: 20 µM,

SMILES,Potency,activation
O=C(NCCCN1CCOCC1)c1ccc(CS(=O)(=O)c2c(Cl)cccc2Cl)o1,"inconclusive [activator, single point]",
Cc1ccc(-n2c(C)cc(C(=O)COC(=O)c3c(C)noc3C)c2C)cc1,"inconclusive [activator, partial curve]",
Cc1nc(NC2CCCCC2)c2nc(-c3ccccc3)n(CCN(C)C)c2n1,active: 10 µM,
Cc1ccc(-n2c(SCC(=O)OC(C)C)nnc2-c2cnccn2)cc1,"inconclusive [activator, single point]",
C/C(Cl)=C\Cn1c(Nc2ccccc2)nc2c1c(=O)n(C)c(=O)n2C,"inconclusive [activator, partial curve]",
CCCn1c(C)nc2c(NCC(C)(C)CN(C)C)nc(C)nc21,,inactive: 4.33%
CCCCN(CCCNC(=O)CN1C(=O)COc2ccccc21)c1ccccc1,"inconclusive [activator, single point]",
C[C@H]1C[C@@H]2[C@H]3CCC4=CC(=O)C=C[C@@]4(C)[C@@]3(Cl)[C@@H](O)C[C@]2(C)[C@]1(OC(=O)c1ccco1)C(=O)CCl,,inactive: 0.822% [at 25.6 µM]
COc1ccc(Nc2nc(-c3sc(N)nc3C)cs2)cc1,"inconclusive [activator, single point]",
CN(C(=O)c1cccc(C#N)c1)c1nnc(-c2cnccn2)s1,"inconclusive [activator, single point]",
c1ccc(CC2CCN(c3nnnn3-c3ccccc3)CC2)cc1,"inconclusive [activator, single point]",
c1ccc2cc(C3=NCCN3)ncc2c1,,inactive: 14.4%
O=c1[nH]ncc2c3ccccc3n(Cc3ccccc3F)c12,"inconclusive [activator, full curve, poor fit]",
O=c1[nH]c(CSc2ncc(-c3ccc(F)cc3)n2Cc2ccco2)nc2ccccc12,"inconclusive [activator, partial curve]",
CCOc1ccc(-c2nnc(-c3ccco3)o2)cc1OCC,,inactive: 9.24%
O=C(O)C1=CC(=C(c2ccc(O)c(C(=O)O)c2)c2ccc(O)c(C(=O)O)c2)C=CC1=O,,inactive: 6.52%
O=C(c1csnn1)N1CCC[C@@]2(CCN(Cc3cc(C(F)(F)F)cc(C(F)(F)F)c3)C2)C1,"inconclusive [activator, partial curve]",
CC(C)c1ccc(-c2nnn(Cc3nc4ccccc4s3)n2)cc1,"inconclusive [activator, full curve]",
Cc1ccc(C)n1-c1ccc(-c2nnco2)cc1,,inactive: 3.87%
CC(C)(C)NC(=O)C(c1ccncc1)N(C(=O)CNC(=O)c1ccco1)c1ccc2c(c1)OCO2 (configuration not stated),,inactive: -1.28%
CCC(C)(C)NC(=O)C(c1cccc(OC)c1)N(C(=O)c1ccn[nH]1)c1cccc(OC)c1 (configuration not stated),"inconclusive [activator, single point]",
CCC(C)(C)NC(=O)C(c1ccc(F)cc1)N(Cc1ccco1)C(=O)c1cnccn1 (configuration not stated),"inconclusive [activator, partial curve]",
COC(=O)c1ccc(CSc2nc3c(c(=O)n2-c2ccc(F)cc2)SCC3)o1,,inactive: 26%
COc1ccc(OC)c(C(c2nnnn2CC2CCCO2)N2CCN(C3CCCC3)CC2)c1 (configuration not stated),"inconclusive [activator, single point]",

SMILES,Potency,activation
COc1ccc(OC)c(C2/C(=C(\O)c3c(C)nc4ccccn34)C(=O)C(=O)N2CCCN(C)C)c1 (configuration not stated),,inactive: 2.78%
COc1ccc2cc1Oc1ccc(cc1)C[C@@H]1c3c(cc(OC)c4c3Oc3cc5c(cc3O4)CCN[C@H]5C2)CCN1C,,inactive: -29.2% [at 11.4 µM]
CCc1nc(Nc2ccc(N3CCN(C(C)=O)CC3)cc2)c2oc3ccccc3c2n1,,inactive: -23.6%
COc1ccc(-n2nnc3c(SCC(=O)N4CCN(c5ccccc5)CC4)ncnc32)cc1,"inconclusive [activator, single point]",
CN1CCN(c2nc(-c3ccc4c(c3)OCO4)nc3ccccc23)CC1,,inactive: 10.5%
CCC/C=C(\CCC)C(NC(=O)c1ccccc1)c1ccc(C(=O)OC)cc1 (configuration not stated),active: 3.16 µM,
CN1CCN(c2ncc3nc(-c4ccccc4)c(=O)n(CCC#N)c3n2)CC1,"inconclusive [activator, single point]",
CSc1nc(N)nc(SC2C=CCCC2)c1C#N (configuration not stated),"inconclusive [activator, single point]",
COc1ccc(-c2c3c(nc4sc(C(=O)Nc5cc(C)on5)c(N)c24)CCC3)cc1,,inactive: 3.34%
CCCn1c(C)nc2c(NCCN3CCCCC3)nc(C)nc21,,inactive: 10.6%
COc1ccc(-c2nnc(Nc3nc4c(OC)cccc4s3)o2)cc1,"inconclusive [activator, single point]",
COC(=O)/C=c1/sc2nc3ccccc3n2c1=O,,inactive: -1.68%
CCOc1ccc2oc(C(=O)OCC(=O)NC(=O)NC3CCCC3)c(C)c2c1,"inconclusive [activator, single point]",
O=S(=O)(c1cccc2cccnc12)N(CCO)CCO,,inactive: -1.52%
COc1ccc(C2CC(=O)c3cnc(NC(=O)c4ccccc4OC)nc3C2)c(OC)c1 (configuration not stated),"inconclusive [activator, partial curve]",
Fc1ccc(N2CCN(C(c3cccs3)c3nnnn3CCc3ccccc3)CC2)cc1 (configuration not stated),"inconclusive [activator, partial curve]",
COc1cc(-c2nnc(-c3ccc(N4CCOCC4)cc3)o2)cc(OC)c1OC,"inconclusive [activator, single point]",
COc1ccc(CCC(=O)Nc2ccc3c(c2)OCCO3)cc1,"inconclusive [activator, single point]",
CS(=O)(=O)Nc1cccc(-c2ccc3ncnc(NC4CCNCC4)c3c2)c1,"inconclusive [activator, single point]",
COc1cccc(CN2CCCC(C(=O)N3CCCCC3)C2)c1OC (configuration not stated),"inconclusive [activator, partial curve]",
O=C(Nc1cnccn1)c1cccs1,"inconclusive [activator, single point]",
CCC1CCCCN1C(=O)Cn1c(C(=O)OC)cc2ccsc21 (configuration not stated),active: 25.1 µM,
CC1(C)Oc2ccc(C(=O)NC3CCCC3)cc2N(CC(=O)NC2CCCCC2)C1=O,,inactive: 2.2%
Cn1c(=O)n(CCc2ccccc2)c(=O)c2c1nc1n2CCCN1CCc1ccccc1,,inactive: -29.6%
